Results reported in patent US6962920B2, “Pyrimidine derivatives and methods of making and using these derivatives” (Duquesne University of the Holy Ghost, priority 1992, dated 2005).

System: NCI-H322M
Assay type: cell-based
[1] = Table 29, Non-Small Cell Lung Cancer

Compound | GI50 (Homo sapiens, Non-Small Cell Lung Cancer) [µM] | GI50 [1] [µM]
Nc1nc(N)c2c(CNc3ccc(C(=O)N[C@@H](CCC(=O)O)C(=O)O)cc3)c[nH]c2n1 [Compound 9] | > 100 | –
COc1ccc(CCc2cn(Cc3ccccc3)c3nc(N)nc(C)c23)cc1 [Compound 113-118] | – | 74.7
COc1ccccc1CCc1cn(Cc2ccccc2)c2nc(N)nc(C)c12 [Compound 113-148] | – | 10.1
COc1cc(CCc2c[nH]c3nc(N)nc(C)c23)cc(OC)c1OC [Compound 113-154A] | – | 26.9

Where two headings read alike, the source gives them in different places.
